Data published in the supplement of paper PMC11417369.
Some of the results follow.

Test system: PF3D7_0420300 AP2 domain 1 (GST-tagged)
Experiment: gcPBM binding intensity (ln(normalized median fluorescence intensity)); higher = stronger DNA binding
Method in brief: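 For binding intensity, the highest Masliner-normalised natural-log median intensity across replicate spots of either probe orientation was taken. Protein bound to the array was stained with Alexa488 anti-GST antibody and scanned at 488 nm. The protein, GST-tagged P. falciparum DNA-binding domains from E. coli at about 25 μg on average, had been applied for 1 h to an Agilent 4 × 180k array of primer-extended double-stranded 36-bp intergenic genomic probes and negative controls.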

| Sequence | gcPBM binding intensity (ln) |
| --- | --- |
| TTTCTTACAACAACAACAAAAAAAAATAAATAAAAT [GTGCAC_negctrl_site711] | 9.37 |
| TATTATTTTTTTATTCTATTAAAAAGAAAAAAATGA [CACACA_negctrl_site407] | 8.63 |
| AATTTATTTTTAAAAAGTACATACTTAAGAAAACGA [XGTACX_site3660] | 9.16 |
| TCGACAATTTTATAAAGTACTTATTAGAAATATGAA [XGTACX_site7133] | 8.8 |
| CCATTTAAAACATTTTGTACTTATTTTACATTTCTG [XGTACX_site4270] | 9.4 |
| GATTCATTTCATAATACACACAACAAATATTTCAAA [CACACA_site120] | 9.46 |
| AGAAAAAAAAATTATACATGCATATACGTTTATTTT [TGCATGCA_site529] | 9.16 |
| AAACAAATAAAATTTATTAAAAAGGTCATATTATTA [CACACA_negctrl_site85] | 9.12 |
| TTTAATATAACTATTTGTACATAAAGAATATAAATA [XGTACX_site4594] | 8.86 |
| TTTTTTTGCCATATTACACACACACGGGTAAACCCC [CACACA_site6874] | 9.98 |
| TAAATTTTTATTTGTAGTACTATATATATATATATA [XGTACX_site1026] | 9.17 |
| TAATGAAAATATATAACACACAAAAGTTATAAATAT [CACACA_site1189] | 9.57 |
| GTGTTGAATTATGTGCTTTTTTCTTTCTACTCAGTA [XGTACX_negctrl_site464] | 9.62 |
| CCCACAGACAAAAACACACACAAAGGTGTTCTTATA [CACACA_site4840] | 9.47 |
| AAGAGAAAAAGAATGAAAGAAAAAAAAAAAAAATAT [CACACA_negctrl_site1527] | 9.37 |
| TTTTTAAAGGTGATAAAACACACGATTTAGAAATGT [CACACA_site3160] | 9.24 |
| TTATCGACCAATAAAGCATGCAAAAAAAAAAAAAAA [TGCATGCA_site788] | 8.83 |
| CTACATAAAAAAATATGTACATATATATATATATAT [XGTACX_site667] | 9.1 |
| AAAAAAAAAAAAAACACACACATACAGACAAAAATG [CACACA_site83] | 10.1 |
| CTAAATTATAGATCAGTGCAATTTAATATGAGTCCA | 9.13 |
| TTGTAATTATTAAACACACACAAAATATATATAATA [CACACA_site2523] | 9.82 |
| CCATAAAAATATAATACACACATATATATTAACATA [CACACA_site4102] | 9.66 |
| GAACATTTGAAATATGCACACATGTATAAACATACA [CACACA_site5463] | 9.35 |
| ATACATCGTATATAAGTGCATATTAAGGTCTTAAGA [GTGCAC_site9560] | 9.31 |
